# This is one part of the list.
# B1: StcE (Escherichia coli), O82882.2 (protein)
# chain: ADNNSAIYFNTSQPINDLQGSLAAEVKFAQSQILPAHPKEGDSQPHLTSLRKSLLLVRPVKADDKTPVQVEARDDNNKILGTLTLYPPSSLPDTIYHLDGVPEGGIDFTPHNGTKKIINTVAEVNKLSDASGSSIHSHLTNNALVEIHTANGRWVRDIYLPQGPDLEGKMVRFVSSAGYSSTVFYGDRKVTLSVGNTLLFKYVNGQWFRSGELENNRITYAQHIWSAELPAHWIVPGLNLVIKQGNLSGRLNDIKIGAPGELLLHTIDIGMLTTPRDRFDFAKDKEAHREYFQTIPVSRMIVNNYAPLHLKEVMLPTGELLTDMDPGNGGWHSGTMRQRIGKELVSHGIDNANYGLNSTAGLGENSHPYVVAQLAAHNSRGNYANGIQVHGGSGGGGIVTLDSTLGNEFSHEVGHNYGLGHYVDGFKGSVHRSAENNNSTWGWDGDKKRFIPNFYPSQTNEKSCLNNQCQEPFDGHKFGFDAMAGGSPFSAANRFTMYTPNSSAIIQRFFENKAVFDSRSSTGFSKWNADTQEMEPYEHTIDRAEQITASVNELSESKMAELMAEYAVVKVHMWNGNWTRNIYIPTASADNRGSILTINHEAGYNSYLFINGDEKVVSQGYKKSFVSDGQFWKERDVVDTREARKPEQFGVPVTTLVGYYDPEGTLSSYIYPAMYGAYGFTYSDDSQNLSDNDCQLQVDTKEGQLRFRLANHRANNTVMNKFHINVPTESQPTQATLVCNNKILDTKSLTPAPEGLTYTVNGQALPAKENEGCIVSVNSGKRYCLPVGQRSGYSLPDWIVGQEVYVDSGAKAKVLLSDWDNLSYNRIGEFVGNVNPADMKKVKAWNGQYLDFSKPRSMRVVYK
# Tests used:
# Assay in all cases: glycan array binding signal (z-score within array); higher = stronger binding
# Settings in all cases: glycan notation: IUPAC condensed, linker removed
# [1] = target: Gal(b1-4)GlcNAc(b1-2)Man(a1-6)[GlcNAc(b1-2)Man(a1-3)]Man(b1-4)GlcNAc(b1-4)GlcNAc
# Method in brief: (§1)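 Glycan array data came from 3228 arrays in the Consortium for Functional Glycomics database, and only arrays with an available protein sequence were kept. Glycan names were put into IUPAC-condensed notation, and columns mapping to the same glycan were averaged. The binding signal is a within-array Z-score, averaged across arrays of one protein sequence run at different concentrations or buffers and across linkers. A negative Z-score can be read as non-binding.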
# [2] = target: Gal(b1-4)GlcNAc(b1-2)Man(a1-6)[Man(a1-3)]Man(b1-4)GlcNAc(b1-4)GlcNAc
# Method in brief: as §1
# [3] = target: Gal(b1-4)GlcNAc(b1-2)[Gal(b1-4)GlcNAc(b1-4)]Man(a1-3)[Gal(b1-4)GlcNAc(b1-2)Man(a1-6)]Man(b1-4)GlcNAc(b1-4)GlcNAc
# Method in brief: as §1
# [4] = target: Gal(b1-4)GlcNAc(b1-2)[Gal(b1-4)GlcNAc(b1-4)]Man(a1-3)[Gal(b1-4)GlcNAc(b1-2)[Gal(b1-4)GlcNAc(b1-6)]Man(a1-6)]Man(b1-4)GlcNAc(b1-4)GlcNAc
# Method in brief: as §1
# [5] = target: Gal(b1-4)GlcNAc(b1-2)[Gal(b1-4)GlcNAc(b1-4)]Man(a1-3)[GlcNAc(b1-4)][Gal(b1-4)GlcNAc(b1-2)Man(a1-6)]Man(b1-4)GlcNAc(b1-4)GlcNAc
# Method in brief: as §1
# [6] = target: Gal(b1-4)GlcNAc(b1-2)[Gal(b1-4)GlcNAc(b1-4)]Man(a1-3)[GlcNAc(b1-4)][Gal(b1-4)GlcNAc(b1-2)[Gal(b1-4)GlcNAc(b1-6)]Man(a1-6)]Man(b1-4)GlcNAc(b1-4)GlcNAc
# Method in brief: as §1
# [7] = target: Gal(b1-4)GlcNAc(b1-2)[Gal(b1-4)GlcNAc(b1-4)]Man(a1-3)[GlcNAc(b1-4)][Gal(b1-4)GlcNAc(b1-2)[Gal(b1-4)GlcNAc(b1-6)]Man(a1-6)]Man(b1-4)GlcNAc(b1-4)[Fuc(a1-6)]GlcNAc
# Method in brief: as §1
# [8] = target: Gal(b1-4)GlcNAc(b1-2)[Gal(b1-4)GlcNAc(b1-6)]Man(a1-6)[Gal(b1-4)GlcNAc(b1-2)Man(a1-3)]Man(b1-4)GlcNAc(b1-4)GlcNAc
# Method in brief: as §1
# [9] = target: Gal(b1-4)GlcNAc(b1-2)[Gal(b1-4)GlcNAc(b1-6)]Man(a1-6)[Gal(b1-4)GlcNAc(b1-2)Man(a1-3)]Man(b1-4)GlcNAc(b1-4)[Fuc(a1-6)]GlcNAc
# Method in brief: as §1
# [10] = target: Gal(b1-4)GlcNAc(b1-2)[Gal(b1-4)GlcNAc(b1-6)]Man(a1-6)[GlcNAc(b1-4)][Gal(b1-4)GlcNAc(b1-2)Man(a1-3)]Man(b1-4)GlcNAc(b1-4)GlcNAc
# Method in brief: as §1
# [11] = target: Gal(b1-4)GlcNAc(b1-3)Gal(b1-3)GlcNAc
# Method in brief: as §1
# [12] = target: Gal(b1-4)GlcNAc(b1-3)Gal(b1-4)Glc
# Method in brief: as §1
# [13] = target: Gal(b1-4)GlcNAc(b1-3)Gal(b1-4)GlcNAc
# Method in brief: as §1
# [14] = target: Gal(b1-4)GlcNAc(b1-3)Gal(b1-4)GlcNAc(b1-3)Gal(b1-4)GlcNAc
# Method in brief: as §1
# [15] = target: Gal(b1-4)GlcNAc(b1-3)Gal(b1-4)[Fuc(a1-3)GlcNAc(b1-6)]Gal(b1-4)Glc
# Method in brief: as §1
# [16] = target: Gal(b1-4)GlcNAc(b1-3)Gal(b1-4)[Fuc(a1-3)]GlcNAc(b1-3)Gal(b1-4)[Fuc(a1-3)]GlcNAc
# Method in brief: as §1
# [17] = target: Gal(b1-4)GlcNAc(b1-3)GalNAc
# Method in brief: as §1
# [18] = target: Gal(b1-4)GlcNAc(b1-3)[Gal(b1-4)GlcNAc(b1-6)]Gal(b1-4)GlcNAc
# Method in brief: as §1
# [19] = target: Gal(b1-4)GlcNAc(b1-3)[Gal(b1-4)GlcNAc(b1-6)]GalNAc
# Method in brief: as §1
# [20] = target: Gal(b1-4)GlcNAc(b1-3)[GlcNAc(b1-6)]Gal(b1-4)GlcNAc
# Method in brief: as §1
# [21] = target: Gal(b1-4)GlcNAc(b1-6)Gal(b1-4)GlcNAc
# Method in brief: as §1
# [22] = target: Gal(b1-4)GlcNAc(b1-6)GalNAc
# Method in brief: as §1
# [23] = target: Gal(b1-4)GlcNAc(b1-6)[Gal(b1-3)]GalNAc
# Method in brief: as §1
# Gal(b1-4)GlcNAc6P = target: Gal(b1-4)GlcNAc6P
# Method in brief: as §1
# Gal(b1-6)Gal = target: Gal(b1-6)Gal
# Method in brief: as §1
# Gal3S(b1-3)GalNAc = target: Gal3S(b1-3)GalNAc
# Method in brief: as §1
# Gal3S(b1-3)GlcNAc = target: Gal3S(b1-3)GlcNAc
# Method in brief: as §1
# [24] = target: Gal3S(b1-3)[Fuc(a1-4)]GlcNAc
# Method in brief: as §1
# Gal3S(b1-4)Glc = target: Gal3S(b1-4)Glc
# Method in brief: as §1
# Gal3S(b1-4)Glc6S = target: Gal3S(b1-4)Glc6S
# Method in brief: as §1
binder,measurement,setting,value
B1,glycan array binding signal (z-score),[1],-0.062
same,glycan array binding signal (z-score),[2],-0.164
same,glycan array binding signal (z-score),[3],-0.13
same,glycan array binding signal (z-score),[4],-0.15
same,glycan array binding signal (z-score),[5],-0.148
same,glycan array binding signal (z-score),[6],-0.17
same,glycan array binding signal (z-score),[7],-0.115
same,glycan array binding signal (z-score),[8],-0.147
same,glycan array binding signal (z-score),[9],-0.152
same,glycan array binding signal (z-score),[10],-0.169
same,glycan array binding signal (z-score),[11],-0.002
same,glycan array binding signal (z-score),[12],0.034
same,glycan array binding signal (z-score),[13],-0.234
same,glycan array binding signal (z-score),[14],0.169
same,glycan array binding signal (z-score),[15],-0.17
same,glycan array binding signal (z-score),[16],-0.274
same,glycan array binding signal (z-score),[17],-0.269
same,glycan array binding signal (z-score),[18],-0.145
same,glycan array binding signal (z-score),[19],0.448
same,glycan array binding signal (z-score),[20],-0.18
same,glycan array binding signal (z-score),[21],-0.162
same,glycan array binding signal (z-score),[22],0.07
same,glycan array binding signal (z-score),[23],-0.302
same,glycan array binding signal (z-score),Gal(b1-4)GlcNAc6P,-0.154
same,glycan array binding signal (z-score),Gal(b1-6)Gal,-0.167
same,glycan array binding signal (z-score),Gal3S(b1-3)GalNAc,-0.352
same,glycan array binding signal (z-score),Gal3S(b1-3)GlcNAc,-0.214
same,glycan array binding signal (z-score),[24],-0.263
same,glycan array binding signal (z-score),Gal3S(b1-4)Glc,-0.218
same,glycan array binding signal (z-score),Gal3S(b1-4)Glc6S,0.132
